Measured values published in article PMC4336329 (PLoS ONE, 2015).
Hit rate of the full screen: of about 310,000 compounds, about 14,000 (4.5%) showed an effect of 50% or more. Effects have a minus sign here. The list shows a part of the results.

What follows are compounds tested against human ether-à-go-go-related gene (hERG) potassium channel (human, UniProt Q12809) (assay: primary screen, population patch clamp on CHO cells stably expressing hERG).
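Further: peak tail current of the secondary pulse compared with the same well before compound.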

Sequence of human ether-à-go-go-related gene (hERG) potassium channel (Q12809 whole entry, looked up): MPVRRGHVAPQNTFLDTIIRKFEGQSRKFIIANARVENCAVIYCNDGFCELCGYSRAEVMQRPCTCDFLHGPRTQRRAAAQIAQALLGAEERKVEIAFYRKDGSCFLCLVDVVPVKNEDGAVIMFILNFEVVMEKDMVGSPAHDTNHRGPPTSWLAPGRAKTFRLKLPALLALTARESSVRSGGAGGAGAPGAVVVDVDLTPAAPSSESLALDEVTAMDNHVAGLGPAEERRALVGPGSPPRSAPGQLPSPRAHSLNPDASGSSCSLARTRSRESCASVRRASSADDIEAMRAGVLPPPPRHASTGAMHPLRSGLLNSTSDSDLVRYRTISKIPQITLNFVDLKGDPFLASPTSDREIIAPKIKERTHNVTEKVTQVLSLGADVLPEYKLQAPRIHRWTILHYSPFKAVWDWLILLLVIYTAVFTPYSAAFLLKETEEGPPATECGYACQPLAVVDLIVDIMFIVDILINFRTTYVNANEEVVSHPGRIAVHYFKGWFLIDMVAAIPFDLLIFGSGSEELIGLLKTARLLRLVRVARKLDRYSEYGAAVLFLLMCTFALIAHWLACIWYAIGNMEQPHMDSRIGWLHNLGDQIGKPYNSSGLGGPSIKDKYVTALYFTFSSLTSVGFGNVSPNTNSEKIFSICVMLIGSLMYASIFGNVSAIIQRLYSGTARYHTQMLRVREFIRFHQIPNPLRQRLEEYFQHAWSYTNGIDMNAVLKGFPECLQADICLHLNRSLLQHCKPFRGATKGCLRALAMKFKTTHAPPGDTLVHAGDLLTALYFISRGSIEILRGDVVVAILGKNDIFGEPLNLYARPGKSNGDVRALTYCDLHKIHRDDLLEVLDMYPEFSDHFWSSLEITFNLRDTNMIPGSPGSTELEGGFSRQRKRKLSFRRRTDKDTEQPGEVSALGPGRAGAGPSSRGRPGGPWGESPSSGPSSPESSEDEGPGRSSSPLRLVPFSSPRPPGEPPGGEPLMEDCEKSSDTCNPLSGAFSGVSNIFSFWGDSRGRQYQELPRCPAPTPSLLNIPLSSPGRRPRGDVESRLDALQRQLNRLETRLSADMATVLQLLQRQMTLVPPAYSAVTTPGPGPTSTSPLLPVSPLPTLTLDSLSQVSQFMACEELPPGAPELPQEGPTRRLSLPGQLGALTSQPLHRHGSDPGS

Compound | hERG current change (%, negative = inhibition) at 10uM
O=C(NCCN1CCOCC1)c1cccc(Br)c1 | -3.21%
O=C(NCCN1CCOCC1)c1cc(Cl)ccc1Cl | 1.3%
Cc1cccc(CCNC(=O)CN(C)S(=O)(=O)c2cnc[nH]2)c1 | 4.07%
CC(C)CNCC(=O)N1c2ccccc2Sc2ccccc21.O=C(O)C(=O)O | -3.39%
COc1cccc2cc(C(=O)OC3CCN(C)CC3)c(=O)oc12 | 0.927%
CCCNS(=O)(=O)c1ccc(CCC(=O)N2CCOCC2)cc1 | 3.77%
O=C(c1ccco1)N1CCCC(c2nc3c(nnn3Cc3ccccc3)c(=O)[nH]2)C1 (stereo not drawn) | -8.47%
COCCn1c(SCC(=O)c2c(N)n(C3CC3)c(=O)[nH]c2=O)nc2ccccc21 | 15.5%
CCOc1ccccc1-n1c(O)c(C=NCc2ccc3c(c2)OCO3)c(=O)[nH]c1=O | 7.5%
CCOc1ccc(NC(=O)CSCc2cnn(-c3ccccc3)c2-n2cccc2)cc1 | -20.9%
O=C(CCn1cnnn1)Nc1ccc(Cl)c(Cl)c1 | 11.3%
CCCC(C)C(=O)NC1CCSC1=O (stereo not drawn) | 2.34%
CNC(=O)N1c2ccccc2NC(=O)CC1C (stereo not drawn) | 9.32%
O=S(=O)(NC1CCCC1)OCC(Cl)(Cl)Cl | -2.69%
O=C1CCN(C(=O)c2ccc(Cl)cc2)N1 | -19.3%
O=C(/C=C/c1ccc(OCCCF)cc1)NCc1cccc(Cl)c1 | -2.82%
COc1ccc(NC(=O)C(=O)NCC(c2ccco2)N2CCc3ccccc3C2)cc1 (stereo not drawn) | -23.5%
COc1ccc(-n2c(-c3cccc(OC)c3)nc(=S)c3c2CCCC3)cc1 | 8.47%
CCc1nnc(NC(=O)c2nc(S(=O)(=O)Cc3cccc(C)c3)ncc2Cl)s1 | -9.57%
COc1ccc(N2CCN(CCCNS(=O)(=O)c3ccc4c(c3)oc(=O)n4C)CC2)cc1 | -16.3%
Cc1c(C(=O)N2CCOCC2)c(S(=O)(=O)Nc2cccc(C#N)c2)c(C)n1C | 23%
O=[N+]([O-])c1ccccc1S(=O)(=O)NC1CCCCCCC1 | -0.427%
COc1ccc2[nH]c(C(=O)N3CCCN(Cc4ccc(F)cc4)CC3)cc2c1 | -43.4%

Compound | hERG current change (%, negative = inhibition) at 10uM
COc1ccc(OC)c(CNCc2ccc3c(c2)OCO3)c1.O=C(O)C(=O)O | -4.43%
Cc1cccc(N2CCN(C(=O)CCS(=O)(=O)c3ccc(Br)cc3)CC2C)c1 (stereo not drawn) | -23%
Cn1cc(C(=O)N2CCC3(CC2)OCCO3)c2c3ccccc3n(C)c2c1=O | 13.3%
Cl.OC(COc1ccc(F)cc1)CN1CCN(c2ccccc2F)CC1 (stereo not drawn) | -66.6%
CSc1nnc(OC(=O)N(C)C)n1-c1ccc(Cl)cc1 | 7.1%
CC(=O)NCc1ccc(S(=O)(=O)NC2CCN(Cc3ccccc3)CC2)cc1 | 18%
Cc1nccn1CCCNC(=O)c1nc(Cn2cc([N+](=O)[O-])cn2)no1 | 21.9%
O=C(O)CC(CC(=O)NCC(O)c1ccccc1)c1ccccc1 (stereo not drawn) | 6.24%
NNc1nc2sc3c(c2c(=O)[nH]1)CCc1ccccc1-3 | 7.46%
O=C(NC1CCCCCCC1)c1ccc(F)c(S(=O)(=O)N2CCOCC2)c1 | 9.88%
CC1CCc2nn(CC(=O)NCCC3=CCCCC3)cc2C1 (stereo not drawn) | 6.93%
NCCCS(=O)(=O)O.O.[Na+] | 4.88%
O=C(NC1CCC(CC2CCC(NC(=O)C(Cl)Cl)CC2)CC1)C(Cl)Cl (stereo not drawn) | 11.9%
CC(=O)Nc1ccc(NC(=O)CSc2nc(C)nc3sc(C)c(C)c23)cc1 | 21.2%
Cc1cc(-c2nc(-c3ccncc3)no2)ccc1[N+](=O)[O-] | -5.2%
COC(=O)c1[nH]c2ccccc2c1NC(=O)CCN1CCSCC1 | 4.47%
Cc1cccc(NC(=S)/N=C(\N)Nc2nc(C)c3cc(C)ccc3n2)c1 | 18.9%
CN(C)CCCN(C(=O)c1ccc2c(c1)CCCC2)c1nc2ccc(F)cc2s1.Cl | -66.9%
CCOC(=O)c1c(CC(C)C)csc1NC(C)=O | -2.62%
CCCCCCCCCCCCCCCCn1cc[n+](C)c1.[Br-] | -18.4%
CC(=O)c1ccc(Oc2ccc(C(C)=O)cc2)cc1 | 0.755%
O=C(CN1CCC(NC(=O)c2ccc(Br)cc2)CC1)NCc1cccs1 | -49.1%
